Test results as given in article PMC7819943, “Rice protein-binding microarrays: a tool to detect cis-acting elements near promoter regions in rice”.
Some of the results follow.

Each sequence was assayed against T1, OsWOX13 (Oryza sativa, UniProt Q5QMM3 1-267) (assay: protein-binding microarray (RPBM); PBS, 2% BSA, 51.3 ng/ul salmon testes DNA, 50 uM zinc acetate, 200 nM TF, 25 C, 1 h; high values mean tight binding). Conditions: protein: recombinant; tags: N-terminal polyhistidine and DsRed monomer fusion (pET32a); label: CyDye5-dUTP incorporated in the synthesized complementary strand; 3' TTTTT single-stranded linker to array surface; dsDNA, one strand shown.
T1 sequence: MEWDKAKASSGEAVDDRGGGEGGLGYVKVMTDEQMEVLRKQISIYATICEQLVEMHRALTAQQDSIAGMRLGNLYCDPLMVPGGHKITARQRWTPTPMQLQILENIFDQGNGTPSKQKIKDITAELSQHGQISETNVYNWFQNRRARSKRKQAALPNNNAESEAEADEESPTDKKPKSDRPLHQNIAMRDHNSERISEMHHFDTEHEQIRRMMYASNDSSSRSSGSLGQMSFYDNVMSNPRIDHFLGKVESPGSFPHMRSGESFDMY
Summary of the method: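 The binding signal is fluorescence intensity per array feature (arbitrary units). Readings came from an Axon 4000B scanner after a washed, 2% BSA-blocked, double-stranded custom Agilent array had been incubated for 1 h at 25 °C with 200 nM protein and 50 µM zinc acetate. The protein was a Ni–NTA-purified transcription factor fused N-terminally to polyhistidine and DsRed, expressed in E. coli BL21-CodonPlus.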
For “AACCCAACCCCAAGATTGATTGATCATCACTAGTAACCACCGGAGTCACCTAGTGCAG”, the binding signal was 37000 fluorescence intensity (a.u.).
With “TCTTTGATTGGTGGCGGTGTTGAATTGAATTGAATTGATCCGGAGTCACCTAGTGCAG” the binding signal was 46300 fluorescence intensity (a.u.).
“GAATTTTCCAATAGATTGAATCTCTTGCTAAATTTCCTTCCGGAGTCACCTAGTGCAG” was tested, and the binding signal was 9120 fluorescence intensity (a.u.).
In the case of “AAATAATTTTACAGATAAGATATCCACATAATGATTATAGCGGAGTCACCTAGTGCAG”, the binding signal is reported as 8230 fluorescence intensity (a.u.).
“AAACGTAGATTACTGACAAAATTTATTCCATAATCCCTGGCGGAGTCACCTAGTGCAG” was tested, and the binding signal was 7270 fluorescence intensity (a.u.).
With “TTAATTGAGACCGATGAAGAGGCCATATGGACTGCGGGCCCGGAGTCACCTAGTGCAG” the binding signal was 16600 fluorescence intensity (a.u.).
With “GTTTTCCTAATTACGACCTCCCAGTGTTGTAATCTTATAACGGAGTCACCTAGTGCAG” the binding signal was 4680 fluorescence intensity (a.u.).
For “TCTATTATTTCTTAATTGTATTTCTATATAAACTATATACCGGAGTCACCTAGTGCAG”, the binding signal was 3390 fluorescence intensity (a.u.).
“TGGACTAATGACTGATATACAGTTCAGCTAATCTCCATTACGGAGTCACCTAGTGCAG” was tested, and the binding signal was 7970 fluorescence intensity (a.u.).
“AACTTAATTAATGAGTAGCTTATAAAATCCTCAACTCGGCCGGAGTCACCTAGTGCAG” was tested, and the binding signal was 40400 fluorescence intensity (a.u.).
For “GTTAATGATGTTTTAGTTTACCTCCAAGGGAACTGTGGAACGGAGTCACCTAGTGCAG”, the binding signal was 5680 fluorescence intensity (a.u.).
For “GCAATCAACAGCAGACTGACTGACTGCTCATTCTCACTCGCGGAGTCACCTAGTGCAG”, the binding signal was 18500 fluorescence intensity (a.u.).
“AAGGAAATTAACAAGTTAGAAATCGATGAAAATTCTACAACGGAGTCACCTAGTGCAG” was tested, and the binding signal was 4390 fluorescence intensity (a.u.).
“ATCTTGACAAATTTGCTTGTAGTTTGTAGAATTTGCTGTTCGGAGTCACCTAGTGCAG” was tested, and the binding signal was 22300 fluorescence intensity (a.u.).
With “CGTCCGCCACTGATTGACTATAAAGCGAACCAACCTGATTCGGAGTCACCTAGTGCAG” the binding signal was 43200 fluorescence intensity (a.u.).
For “GGTCCCTAAACTCGCAAATTGACCGTTCAGGTCCTCAAACCGGAGTCACCTAGTGCAG”, the binding signal was 3500 fluorescence intensity (a.u.).
“ATAATATAATTATGTAAGATCTTGTTTTGAATTGCAACGACGGAGTCACCTAGTGCAG” was tested, and the binding signal was 21100 fluorescence intensity (a.u.).
For “ATGATAATGTCAAATTTACGATTTAATTTGGATCTGGATGCGGAGTCACCTAGTGCAG”, the binding signal was 23700 fluorescence intensity (a.u.).
“AGCCATAATTACAAACACCTGTGATATACTCTCTTATTTCCGGAGTCACCTAGTGCAG” was tested, and the binding signal was 8480 fluorescence intensity (a.u.).
In the case of “TGTTTTAGTTAATTAATATAGTAGTCCATTGTAAATCACTCGGAGTCACCTAGTGCAG”, the binding signal is reported as 7100 fluorescence intensity (a.u.).
In the case of “CCTCCATCCCCACAAATTACAATCAACAGGGAATATTCTGCGGAGTCACCTAGTGCAG”, the binding signal is reported as 6720 fluorescence intensity (a.u.).
“TTCAATATTAATTTATGTTATTAATTTTAGAAATATATGTCGGAGTCACCTAGTGCAG” was tested, and the binding signal was 10800 fluorescence intensity (a.u.).
“CCGTCAATCTCGCCGTCACCTGCTTCTTCTCCTCTATAAACGGAGTCACCTAGTGCAG” was tested, and the binding signal was 6840 fluorescence intensity (a.u.).
In the case of “ATATATATATATATATATATATATAAAGCAGAAAGAAATACGGAGTCACCTAGTGCAG”, the binding signal is reported as 22400 fluorescence intensity (a.u.).
With “TCTGACTGCTTCGTCGCTTTTCTATCATTGCTATTTTGGTCGGAGTCACCTAGTGCAG” the binding signal was 11300 fluorescence intensity (a.u.).
“TAGGTTTGTAATTTTAGGATAATTTACTCTGAATGTGTTGCGGAGTCACCTAGTGCAG” was tested, and the binding signal was 8410 fluorescence intensity (a.u.).
“GGGTTGATATATTGATGAATGCTCATATTCCCGATTGATACGGAGTCACCTAGTGCAG” was tested, and the binding signal was 9530 fluorescence intensity (a.u.).
In the case of “ATGTCAATCTAATGTCACTAACCCACCCGCCATTGATCTCCGGAGTCACCTAGTGCAG”, the binding signal is reported as 12400 fluorescence intensity (a.u.).
In the case of “AATCACTATAATTTAACATAGGAATTTCAAATACAGTGTACGGAGTCACCTAGTGCAG”, the binding signal is reported as 4520 fluorescence intensity (a.u.).
In the case of “GAGTTATTTATAATTTATATTCTCAAGATTTGACTGAGTTCGGAGTCACCTAGTGCAG”, the binding signal is reported as 5000 fluorescence intensity (a.u.).
With “GAACAAAACTGCCATTATCTCGTCAGTCATCGAGTCCACTCGGAGTCACCTAGTGCAG” the binding signal was 6230 fluorescence intensity (a.u.).
“ATAGTGATAGGTCTGTCAATGCAGTGAGGTCCTGAAAACCCGGAGTCACCTAGTGCAG” was tested, and the binding signal was 8210 fluorescence intensity (a.u.).
For “TTAATATTTATAATTAGTATCCAATCATCCGATGTGATAGCGGAGTCACCTAGTGCAG”, the binding signal was 29800 fluorescence intensity (a.u.).
In the case of “TGGATGATTTTGAAGGCAATGTGGACAAGGACTGGGGTGCCGGAGTCACCTAGTGCAG”, the binding signal is reported as 4880 fluorescence intensity (a.u.).
For “ATTAAATTATTTGGAGCTATAGACAAATAGCCTAATCAAACGGAGTCACCTAGTGCAG”, the binding signal was 9990 fluorescence intensity (a.u.).
With “CTATATAGATTAGATTTGGCTCGAAAGGAACAGGGACCCTCGGAGTCACCTAGTGCAG” the binding signal was 17200 fluorescence intensity (a.u.).
For “GTGTCAATCTGTCTATATAGTATATAGTCTATACAAAACACGGAGTCACCTAGTGCAG”, the binding signal was 6550 fluorescence intensity (a.u.).
For “AGCTTGATTAGCCCAAAGCTTGATGCCGACCAAGCTTTGTCGGAGTCACCTAGTGCAG”, the binding signal was 34800 fluorescence intensity (a.u.).
“AAGATAAATCAGTTGATTTCTCAAATTCAATTGAGTCCCACGGAGTCACCTAGTGCAG” was tested, and the binding signal was 17600 fluorescence intensity (a.u.).
For “CACAGAATCCTTAATTAATTATATACATATATTGATCATGCGGAGTCACCTAGTGCAG”, the binding signal was 16200 fluorescence intensity (a.u.).
In the case of “GGTGGTGTTAACATATGCTTGATTGAGTTTTAATTATTACCGGAGTCACCTAGTGCAG”, the binding signal is reported as 19400 fluorescence intensity (a.u.).
In the case of “ATAATATATGTAAATTAATTTTAAGCTTTATTGAATTTACCGGAGTCACCTAGTGCAG”, the binding signal is reported as 18900 fluorescence intensity (a.u.).
“ACATCCATCACTGAATTTGACCCGTTAGCACTTTCACCATCGGAGTCACCTAGTGCAG” was tested, and the binding signal was 3640 fluorescence intensity (a.u.).
For “TTGGATTGGACCTGACCTGGGAGGCCATGACGGAGTTGGCCGGAGTCACCTAGTGCAG”, the binding signal was 3600 fluorescence intensity (a.u.).
“TTTAAGATGTGGCAATTAATTATTTGTCATTCGCTGTCTACGGAGTCACCTAGTGCAG” was tested, and the binding signal was 8400 fluorescence intensity (a.u.).
For “AAGCTAATTGGCATGCTAGTTTTATCGGATCAGGTGAAGGCGGAGTCACCTAGTGCAG”, the binding signal was 29600 fluorescence intensity (a.u.).
“ACAGATAGTCTAATCATAGGAGATGCTTAGTCTCGTGGCACGGAGTCACCTAGTGCAG” was tested, and the binding signal was 4990 fluorescence intensity (a.u.).
In the case of “AGTTAATCATTTTGAGTTACCTAGCAACAGATTTCAACCTCGGAGTCACCTAGTGCAG”, the binding signal is reported as 4530 fluorescence intensity (a.u.).
For “TTCCTAATTGCCAAATAAAATCCTACTTTGAGTTTTGGATCGGAGTCACCTAGTGCAG”, the binding signal was 24700 fluorescence intensity (a.u.).
“CGTATACTGCTAATTTATAGCTTGATACATGTACTACTAACGGAGTCACCTAGTGCAG” was tested, and the binding signal was 7270 fluorescence intensity (a.u.).
With “GACTGAATTTGATCAATGGTTGTAAACAGTTGTAGTGCATCGGAGTCACCTAGTGCAG” the binding signal was 3980 fluorescence intensity (a.u.).
In the case of “GTATGATTGATCTTCTACGTCCATTATAATTACCACATTGCGGAGTCACCTAGTGCAG”, the binding signal is reported as 52000 fluorescence intensity (a.u.).
In the case of “GATGCCATCTAATTTTAAATGATGATGTGGAGAAGAGAGTCGGAGTCACCTAGTGCAG”, the binding signal is reported as 7100 fluorescence intensity (a.u.).
With “TGCACCTATCATTAATTAATTATACATTTTCCTATATATACGGAGTCACCTAGTGCAG” the binding signal was 21800 fluorescence intensity (a.u.).
